# Laboratory results published in PubChem BioAssay AID686979 (National Center for Advancing Translational Sciences (NCATS), 2013).
# Values joined by “and” are separate entries in the source; they are usually repeats but may differ in a detail not shown here. Identical values can stand only once. Out of some 420,000 compounds screened, about 50,000 (12%) were called active. Inconclusive results, whose numbers are uncertain, are shown with a selection of clear calls. Calls follow the shape of the dose curve; as a rule, active = well fitted inhibition curve with a large enough effect; inconclusive = small, poorly fitted or top-dose-only effect; inactive = flat fitted curve, though single readings scatter. Potencies of inconclusive entries are doubtful fits and often do not repeat.
# Assay: qHTS for Inhibitors of human tyrosyl-DNA phosphodiesterase 1 (TDP1): qHTS in cells in presence of CPT; also: nearly all actives have a fitted effect of over 55% in size
# Conditions: chicken DT40 Tdp1-/-;hTDP1 cells + 20 nM CPT, ATP luminescence, 48 h; activity change, negative = growth inhibition: at 46.2 µM (top of the series) unless noted
# Procedure, shortened: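 Cell growth measured by CellTiter-Glo luminescence after a minimum 48 h, 37 C compound exposure with 20 nM CPT in Tdp1-knockout DT40 cells stably expressing hTDP1, seeded 400/well; qHTS titration format.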
# % is scaled to controls: 0 for no effect and ±100 for the full control effect; potency is read from the fitted curve at half-maximal effect; tags tell the direction and shape of the fitted curve.
Structure (SMILES),"activity change, negative = growth inhibition",Potency
CCC(=O)N1CCC1(C)C(=O)NS(=O)(=O)c1cccc(C#N)c1 (stereo unspecified),inconclusive: -22.4% [inhibitor],
Cc1cccc(NC(=O)c2ccc(CN3CCc4ccccc4C3)cc2)c1C,,"inconclusive: 29.1 µM [inhibitor, single point]"
Cc1cccc(CS(=O)(=O)Cc2ccc(C(=O)NCCc3ccccc3)o2)c1,,"inconclusive: 29.1 µM [inhibitor, single point] and inconclusive: 18.4 µM [inhibitor, single point]"
Cc1ccc(/C=N/N=C2\SCC(=O)N2CC2CC2)cc1,,inactive
COc1cccc(OC)c1C(=O)Nc1cccc(-c2cn3ccsc3n2)c1,,inactive
Cn1nc(C(=O)NCc2cccc(F)c2)cc1C(=O)NCc1cccc(F)c1,,inactive
O=C(NC(=S)Nc1nc2ccc(F)cc2s1)c1ccco1,,active: 4.11 µM
COc1cc2c(cc1CNC[C@H]1O[C@@H](n3ccc(N)nc3=O)[C@H](O)[C@@H]1O)OCO2,,inactive
COc1ccc(-c2nnc(SCC(=O)NC3CCCC3)nc2-c2ccc(OC)c(OC)c2)cc1OC,,active: 18.4 µM
CCN(c1ccc(OC)cc1)S(=O)(=O)N1CCCC(C(=O)NCc2cccc(C)c2)C1 (stereo unspecified),,"inconclusive: 25.9 µM [inhibitor, single point]"
CCOc1ccc(N2CC(c3nc4ccccc4n3Cc3ccccc3F)CC2=O)cc1 (stereo unspecified),,"inconclusive: 25.9 µM [inhibitor, single point]"
O=[N+]([O-])c1ccc(Cl)cc1NCCCN1CCOCC1,,inactive
CC1CCCCN1C(=O)C1CCN(c2nc(-c3ccccc3)nc3c2CCC3)CC1 (stereo unspecified),,active: 20.6 µM
O=C(CN1CCCC1c1cccs1)Nc1cc(S(=O)(=O)N2CCCC2)ccc1Cl (stereo unspecified),,"inconclusive: 8.2 µM [inhibitor, partial curve]"
Cc1cc2c(cc1S(=O)(=O)N1CCCC1)n(C)c(=O)c(=O)n2C,,inactive
O=C(Nc1ccncc1)C1CCN(S(=O)(=O)c2cccs2)CC1,,inactive
COc1cc(OC)cc(-c2c(Sc3ccccc3)c3cc(-c4cnc(OC)nc4)ccc3n2C)c1,,inactive
O=C(NCc1ccccc1)C1CCN(S(=O)(=O)c2ccc3c(c2)CCCN3C(=O)C2CCC2)CC1,,active: 16.4 µM
O=C(Cn1c2[n+](c3ccc(C(F)(F)F)cc31)CCCCC2)Nc1c(F)cccc1F,,inactive
COc1ccc(CN2CCN(C(=O)CC(C)C)CC2)c2ccccc12,,"inconclusive: 29.1 µM [inhibitor, single point]"
O=C(N/N=C/c1ccc(F)cc1)c1cc(-c2ccco2)nc2ccccc12,,active: 11.6 µM
